The list shows a part of the results. Single values are uncertain, as repeats are few or missing.
Columns and labels:
Assay in all cases: cell count relative to DMSO control; melanoma cells; higher = more viable cells
Settings in all cases: library dose: low library concentration; 72 h
WM115 = system: WM115
WM1716 = system: WM1716
WM1745 = system: WM1745
WM3526 = system: WM3526
WM3619 = system: WM3619
WM451Lu = system: WM451Lu
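Further: cell number obtained by counting DAPI-stained nuclei in high-throughput microscope images with image analysis software, screen run in 1,536-well plates.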

## NC1(c2ccc(-c3nc4ccn5c(=O)[nH]nc5c4cc3-c3ccccc3)cc2)CCC1 + Cc1nc(Nc2ncc(C(=O)Nc3c(C)cccc3Cl)s2)cc(N2CCN(CCO)CC2)n1 [dasatanib] (first compound 0.4 µM, partner dose 0.004 µM)
WM115
  cell count: 57.1%
WM1716
  cell count: 86.9%
WM1745
  cell count: 65.5%
WM3526
  cell count: 68.2%
WM3619
  cell count: 94.6%
WM451Lu
  cell count: 90.1%

## NC1(c2ccc(-c3nc4ccn5c(=O)[nH]nc5c4cc3-c3ccccc3)cc2)CCC1 + Nc1cccc2c1CN(C1CCC(=O)NC1=O)C2=O [lenalidomide] (first compound 0.4 µM, partner dose 1 µM)
WM115
  cell count: 95.5%
WM1716
  cell count: 103%
WM1745
  cell count: 90.8%
WM3526
  cell count: 91.8%
WM3619
  cell count: 90.3%
WM451Lu
  cell count: 113%

## CCCS(=O)(=O)Nc1ccc(F)c(C(=O)c2c[nH]c3ncc(Cl)cc23)c1F + O=C(Nc1ccccc1)c1cc([N+](=O)[O-])ccc1Cl [GW9662] (first compound 0.08 µM, partner dose 2 µM)
WM115
  cell count: 96.3%
WM1716
  cell count: 103%
WM1745
  cell count: 86.5%
WM3526
  cell count: 78.5%
WM3619
  cell count: 101%
WM451Lu
  cell count: 97.6%

## C=C(c1ccc(C(=O)O)cc1)c1cc2c(cc1C)C(C)(C)CCC2(C)C [Bexarotene] + C=CCNC1=C2C[C@@H](C)C[C@H](OC)[C@H](O)[C@@H](C)/C=C(\C)[C@H](OC(N)=O)[C@@H](OC)/C=C\C=C(/C)C(=O)NC(=CC1=O)C2=O [Tanespimycin] (first compound 2 µM, partner dose 0.002 µM)
WM115
  cell count: 96%
WM1716
  cell count: 98.3%
WM1745
  cell count: 104%
WM3526
  cell count: 80.3%
WM3619
  cell count: 118%
WM451Lu
  cell count: 87%

## CN(c1ncccc1CNc1nc(Nc2ccc3c(c2)CC(=O)N3)ncc1C(F)(F)F)S(C)(=O)=O + C[C@@H]1CCN(C(=O)CC#N)C[C@@H]1N(C)c1ncnc2[nH]ccc12 [CP690550] (first compound 0.08 µM, partner dose 1 µM)
WM115
  cell count: 91.8%
WM1716
  cell count: 94.4%
WM1745
  cell count: 88.9%
WM3526
  cell count: 106%
WM3619
  cell count: 101%
WM451Lu
  cell count: 83.3%

## CN(c1ncccc1CNc1nc(Nc2ccc3c(c2)CC(=O)N3)ncc1C(F)(F)F)S(C)(=O)=O + CS(=O)(=O)CCNCc1ccc(-c2ccc3ncnc(Nc4ccc(OCc5cccc(F)c5)c(Cl)c4)c3c2)o1 [lapatinib] (first compound 0.08 µM, partner dose 0.8 µM)
WM115
  cell count: 76.8%
WM1716
  cell count: 85.9%
WM1745
  cell count: 67.8%
WM3526
  cell count: 109%
WM3619
  cell count: 108%
WM451Lu
  cell count: 71.9%

## CS(=O)(=O)c1ccc(C(=O)Nc2ccc(Cl)c(-c3ccccn3)c2)c(Cl)c1 [vismodegib] + CCCCCCCCCCCC1=C(O)C(=O)C=C(O)C1=O [Embelin] (first compound 1 µM, partner dose 1.2 µM)
WM115
  cell count: 87.3%
WM1716
  cell count: 103%
WM1745
  cell count: 112%
WM3526
  cell count: 104%
WM3619
  cell count: 104%
WM451Lu
  cell count: 93.5%

## C=C(c1ccc(C(=O)O)cc1)c1cc2c(cc1C)C(C)(C)CCC2(C)C [Bexarotene] + Cn1cncc1[C@@](N)(c1ccc(Cl)cc1)c1ccc2c(c1)c(-c1cccc(Cl)c1)cc(=O)n2C [tipifarnib] (first compound 2 µM, partner dose 0.01 µM)
WM115
  cell count: 102%
WM1716
  cell count: 84.3%
WM1745
  cell count: 98.2%
WM3526
  cell count: 84%
WM3619
  cell count: 72.1%
WM451Lu
  cell count: 81.7%

## NC1(c2ccc(-c3nc4ccn5c(=O)[nH]nc5c4cc3-c3ccccc3)cc2)CCC1 + CCCS(=O)(=O)Nc1ccc(F)c(C(=O)c2c[nH]c3ncc(Cl)cc23)c1F [PLX4720] (first compound 0.4 µM, partner dose 0.08 µM)
WM115
  cell count: 69.6%
WM1716
  cell count: 91.8%
WM1745
  cell count: 91.1%
WM3526
  cell count: 60.9%
WM3619
  cell count: 111%
WM451Lu
  cell count: 97.7%

## CS(=O)(=O)c1ccc(C(=O)Nc2ccc(Cl)c(-c3ccccn3)c2)c(Cl)c1 [vismodegib] + Cc1ccc(NC(=O)c2cccc(N(C)C)c2)cc1NC(=O)c1ccc(O)cc1 [ZM336372] (first compound 1 µM, partner dose 2 µM)
WM115
  cell count: 104%
WM1716
  cell count: 118%
WM1745
  cell count: 89.7%
WM3526
  cell count: 102%
WM3619
  cell count: 92%
WM451Lu
  cell count: 120%

## CCCS(=O)(=O)Nc1ccc(F)c(C(=O)c2c[nH]c3ncc(Cl)cc23)c1F + CN(NC(=O)CC(=O)NN(C)C(=S)c1ccccc1)C(=S)c1ccccc1 [STA4783] (first compound 0.08 µM, partner dose 0.006 µM)
WM115
  cell count: 76.9%
WM1716
  cell count: 83.9%
WM1745
  cell count: 43.8%
WM3526
  cell count: 90%
WM3619
  cell count: 45.7%
WM451Lu
  cell count: 73.5%

## CN(c1ncccc1CNc1nc(Nc2ccc3c(c2)CC(=O)N3)ncc1C(F)(F)F)S(C)(=O)=O + CO[C@@H]1[C@H](N(C)C(=O)c2ccccc2)C[C@H]2O[C@]1(C)n1c3ccccc3c3c4c(c5c6ccccc6n2c5c31)C(=O)NC4 [Midostaurin] (first compound 0.08 µM, partner dose 0.08 µM)
WM115
  cell count: 72.5%
WM1716
  cell count: 75.5%
WM1745
  cell count: 75.3%
WM3526
  cell count: 104%
WM3619
  cell count: 57.7%
WM451Lu
  cell count: 80.1%

## CS(=O)(=O)c1ccc(C(=O)Nc2ccc(Cl)c(-c3ccccn3)c2)c(Cl)c1 [vismodegib] + OCCn1cc(-c2cnc3nnn(Cc4ccc5ncccc5c4)c3n2)cn1 [PF04217903] (first compound 1 µM, partner dose 1 µM)
WM115
  cell count: 98.9%
WM1716
  cell count: 106%
WM1745
  cell count: 92.5%
WM3526
  cell count: 100%
WM3619
  cell count: 81.6%
WM451Lu
  cell count: 96.5%

## CS(=O)(=O)c1ccc(C(=O)Nc2ccc(Cl)c(-c3ccccn3)c2)c(Cl)c1 [vismodegib] + CC1(C)NC(=O)N(c2ccc([N+](=O)[O-])c(C(F)(F)F)c2)C1=O [nilutamide] (first compound 1 µM, partner dose 1 µM)
WM115
  cell count: 100%
WM1716
  cell count: 101%
WM1745
  cell count: 87.2%
WM3526
  cell count: 114%
WM3619
  cell count: 106%
WM451Lu
  cell count: 105%

## CN(c1ncccc1CNc1nc(Nc2ccc3c(c2)CC(=O)N3)ncc1C(F)(F)F)S(C)(=O)=O + Cc1ccc(NC(=O)c2cccc(N(C)C)c2)cc1NC(=O)c1ccc(O)cc1 [ZM336372] (first compound 0.08 µM, partner dose 2 µM)
WM115
  cell count: 77.9%
WM1716
  cell count: 93.9%
WM1745
  cell count: 99.8%
WM3526
  cell count: 97.3%
WM3619
  cell count: 89.9%
WM451Lu
  cell count: 57.8%

## CN(c1ncccc1CNc1nc(Nc2ccc3c(c2)CC(=O)N3)ncc1C(F)(F)F)S(C)(=O)=O + Cn1cncc1[C@@](N)(c1ccc(Cl)cc1)c1ccc2c(c1)c(-c1cccc(Cl)c1)cc(=O)n2C [tipifarnib] (first compound 0.08 µM, partner dose 0.01 µM)
WM115
  cell count: 75%
WM1716
  cell count: 79.2%
WM1745
  cell count: 87%
WM3526
  cell count: 86.6%
WM3619
  cell count: 88.7%
WM451Lu
  cell count: 60.7%

## CN(c1ncccc1CNc1nc(Nc2ccc3c(c2)CC(=O)N3)ncc1C(F)(F)F)S(C)(=O)=O + Cn1c(Nc2ccc(C(F)(F)F)cc2)nc2cc(Oc3ccnc(-c4ncc(C(F)(F)F)[nH]4)c3)ccc21 [CHIR265] (first compound 0.08 µM, partner dose 0.08 µM)
WM115
  cell count: 58%
WM1716
  cell count: 79.2%
WM1745
  cell count: 42.2%
WM3526
  cell count: 57.9%
WM3619
  cell count: 61.6%
WM451Lu
  cell count: 82%

## CCCS(=O)(=O)Nc1ccc(F)c(C(=O)c2c[nH]c3ncc(Cl)cc23)c1F + O=C(CCCCCCC(=O)Nc1ccccc1)NO [vorinostat] (first compound 0.08 µM, partner dose 0.08 µM)
WM115
  cell count: 109%
WM1716
  cell count: 130%
WM1745
  cell count: 110%
WM3526
  cell count: 72.6%
WM3619
  cell count: 91.8%
WM451Lu
  cell count: 103%

Reference: the supplement of paper PMC4604168 (melanoma cell lines)
